Laboratory results from the antibiotic and cytotoxicity screens of Wong et al. (2023).
This is one part of the list.

test system: HepG2; test: cytotoxicity call (relative viability < 0.9); details: 10 µM

Q: How did the cytotoxicity call turn out when `COCC(=O)N1C[C@@H](C)[C@@H](OC)CN(C)C(=O)c2cc(NC(=O)c3cc(C)on3)ccc2OC[C@H]1C` was run?
A: Its cytotoxicity call is “inactive”.

Q: Which cytotoxicity call does the source give for `C[C@@H]1CCCCO[C@H](CN(C)Cc2ccc(C(F)(F)F)cc2)[C@H](C)CN([C@@H](C)CO)C(=O)c2cc(N(C)C)ccc2O1` here?
A: The cytotoxicity call was “inactive”.

Q: With `CCCCC(=O)OC1(C(=O)CO)C(C)CC2C3CCC4=CC(=O)C=CC4(C)C3(F)C(O)CC21C` (stereo not given) as the compound, how does the cytotoxicity call read?
A: Its cytotoxicity call is “inactive”.

Q: Which cytotoxicity call does the source give for `C[C@@H]1CCCCO[C@H](CN(C)C(=O)Cc2ccccc2)[C@@H](C)CN([C@H](C)CO)C(=O)c2cc(NC(=O)CCC(F)(F)F)ccc2O1` here?
A: Its cytotoxicity call is “inactive”.

Q: For `COC(=O)/C=c1\sc2n(c1=O)CCN=2`, which cytotoxicity call is on record?
A: The cytotoxicity call was “inactive”.

Q: How did the cytotoxicity call turn out when `CC(=O)Nc1cccc(S(N)(=O)=O)c1` was run?
A: The cytotoxicity call was “inactive”.

Q: For `COCC(=O)Nc1ccc2c(c1)OC[C@H](C)N(Cc1cccc(F)c1)C[C@@H](C)[C@H](OC)CN(C)C2=O`, which cytotoxicity call is on record?
A: Its cytotoxicity call is “inactive”.

Q: `C[C@@H]1CCCCO[C@H](CN(C)C(=O)Nc2cccc3ccccc23)[C@@H](C)CN([C@H](C)CO)C(=O)c2cc(NS(=O)(=O)c3cn(C)cn3)ccc2O1` was tested. Which cytotoxicity call did it give?
A: The cytotoxicity call was “inactive”.

Q: `C[C@@H]1CN([C@@H](C)CO)C(=O)Cc2cc(NC(=O)CCN3CCOCC3)ccc2O[C@@H]1CN(C)S(=O)(=O)c1ccc(F)cc1` was tested. Which cytotoxicity call did it give?
A: Its cytotoxicity call is “inactive”.

Q: For `C[C@H]1CN([C@@H](C)CO)S(=O)(=O)c2ccc(C#Cc3cccc(F)c3)cc2O[C@@H]1CN(C)C(=O)CN1CCOCC1`, which cytotoxicity call is on record?
A: Its cytotoxicity call is “inactive”.

Q: With `C[C@@H]1CCCCO[C@H](CN(C)S(=O)(=O)c2cccs2)[C@@H](C)CN([C@H](C)CO)C(=O)c2cc(NC(=O)C3CCCCC3)ccc2O1` as the compound, how does the cytotoxicity call read?
A: Its cytotoxicity call is “inactive”.

Q: With `C[C@H]1CCCCO[C@H](CN(C)S(=O)(=O)c2ccc(Cl)cc2)[C@@H](C)CN([C@@H](C)CO)C(=O)c2cc(NS(=O)(=O)c3ccc(F)cc3)ccc2O1` as the compound, how does the cytotoxicity call read?
A: The cytotoxicity call was “active”.

Q: Which cytotoxicity call does the source give for `COCCc1nc2c([nH]1)c(=O)n(C)c(=O)n2C` here?
A: Its cytotoxicity call is “inactive”.

Q: Which cytotoxicity call does the source give for `C[C@@H]1CN([C@H](C)CO)S(=O)(=O)c2ccc(Br)cc2O[C@H]1CN(C)CC1CCOCC1` here?
A: Its cytotoxicity call is “inactive”.

Q: For `C[C@@H]1CN([C@H](C)CO)C(=O)Cc2cc(NC(=O)Cc3ccccc3)ccc2O[C@H]1CN(C)S(=O)(=O)c1cccs1`, which cytotoxicity call is on record?
A: The cytotoxicity call was “inactive”.

Q: With `COc1ccc(NC(=O)Nc2ccc3c(c2)CC(=O)N([C@@H](C)CO)C[C@H](C)[C@H](CN(C)C(=O)Nc2ccc(C(F)(F)F)cc2)O3)cc1` as the compound, how does the cytotoxicity call read?
A: Its cytotoxicity call is “active”.

Q: Which cytotoxicity call does the source give for `Cc1ccc(S(=O)(=O)N[C@H]2C=C[C@H](CC(=O)NCCN3CCCCC3)O[C@H]2CO)cc1` here?
A: The cytotoxicity call was “inactive”.

Q: `C[C@@H]1CN([C@@H](C)CO)C(=O)c2cc(NC(=O)Cc3ccccc3)ccc2O[C@@H](C)CCCCO[C@H]1CN(C)Cc1ccc(C(=O)O)cc1` was tested. Which cytotoxicity call did it give?
A: The cytotoxicity call was “inactive”.

Q: How did the cytotoxicity call turn out when `Cc1noc(C)c1NC(=O)Nc1ccc2c(c1)CC(=O)N([C@H](C)CO)C[C@@H](C)[C@H](CN(C)S(=O)(=O)c1cn(C)cn1)O2` was run?
A: Its cytotoxicity call is “inactive”.

Q: `C[C@H](CO)N1C[C@H](C)[C@@H](CN(C)Cc2ccc(Oc3ccccc3)cc2)Oc2ccc(NC(=O)Cc3ccccc3)cc2C1=O` was tested. Which cytotoxicity call did it give?
A: The cytotoxicity call was “inactive”.

Q: Which cytotoxicity call does the source give for `C[C@@H]1CCCCO[C@H](CN(C)C(=O)c2ccccc2)[C@@H](C)CN([C@@H](C)CO)C(=O)c2cc(NS(=O)(=O)c3cccs3)ccc2O1` here?
A: The cytotoxicity call was “inactive”.

Q: For `COCC#Cc1ccc([C@@H]2[C@H](CO)N3C(=O)CN(C(=O)C4CCOCC4)C[C@@H]23)cc1`, which cytotoxicity call is on record?
A: Its cytotoxicity call is “inactive”.

Q: For `CC(C)NC(=O)Nc1ccc2c(c1)C(=O)N([C@H](C)CO)C[C@@H](C)[C@@H](CN(C)C(=O)Nc1ccccc1)OCCCC[C@@H](C)O2`, which cytotoxicity call is on record?
A: Its cytotoxicity call is “inactive”.

Q: Which cytotoxicity call does the source give for `CCOC(=O)[C@H]1C/C=C/C[C@H](C(=O)OCC)C(=O)O[C@H]2[C@@H](OC)O[C@H](CO)[C@@H](OC(=O)Nc3cccc(F)c3)[C@@H]2OC1=O` here?
A: Its cytotoxicity call is “active”.

Q: Which cytotoxicity call does the source give for `Cc1ccc(S(=O)(=O)N(C)C[C@@H]2Oc3ccc(NC(=O)Cn4cnnn4)cc3CC(=O)N([C@H](C)CO)C[C@@H]2C)cc1` here?
A: Its cytotoxicity call is “inactive”.

Q: How did the cytotoxicity call turn out when `O=c1c(O)c(-c2ccc(O)cc2)oc2ccccc12` was run?
A: Its cytotoxicity call is “active”.

Q: For `C[C@@H]1CCCCO[C@@H](CN(C)S(=O)(=O)c2ccc(F)cc2)[C@H](C)CN([C@@H](C)CO)C(=O)c2cc(NS(C)(=O)=O)ccc2O1`, which cytotoxicity call is on record?
A: The cytotoxicity call was “inactive”.

Q: Which cytotoxicity call does the source give for `CO[C@@H]1CN(C)C(=O)c2ccc(NS(=O)(=O)CC(F)(F)F)cc2OC[C@@H](C)N(C(=O)c2ccc3c(c2)OCO3)C[C@@H]1C` here?
A: Its cytotoxicity call is “inactive”.

Q: Which cytotoxicity call does the source give for `C[C@@H]1CN([C@@H](C)CO)C(=O)c2cc(C#CCc3ccccc3)cnc2O[C@@H]1CN(C)C(=O)C1CCOCC1` here?
A: The cytotoxicity call was “inactive”.

Q: How did the cytotoxicity call turn out when `COCC#Cc1ccc2c(c1)O[C@H](CN(C)C(=O)c1ccccc1)[C@H](C)CN([C@H](C)CO)S2(=O)=O` was run?
A: Its cytotoxicity call is “inactive”.
